This test concerns Vero (a non-transformed cell line as control). Briefly: Cell viability assay (MTS), Vero. It counts as cell-based. The settings on record: 72 h, NI = no inhibition, read-out: Antiproliferative Activity IC50 (μM) VERO.

Where two headings read alike, the source gives them in different places.

Turning to `COc1ccccc1-c1cn(CCCCn2ccc(=O)c(O)c2C)nn1` [Compound 2g, 3-Hydroxy-1-(4-(4-(2-methoxyphenyl)-1H-1,2,3-triazol-1-y)butyl)-2-methylpyridin-4(1H)-one], the IC50 was > 50 µM.
Still for that read-out and setting: in the case of `Cc1c(O)c(=O)ccn1CCCCCn1cc(-c2ccc(N(C)C)cc2)nn1` [Compound 2r, 1-(5-(4-(4-(Dimethylamino)phenyl)-1H-1,2,3-triazol-1-yl)pentyl)-3-hydroxy-2-methylpyridin-4(11)-one] it was > 50 µM.
Consider `CC/C(=C(\c1ccccc1)c1ccc(OCCN(C)Cc2ccc(-c3cn(CCn4ccc(=O)c(O)c4C)nn3)cc2)cc1)c1ccccc1` [Compound 36a], for which, where the note is “Chlorocebus sabaeus, Vero”, the IC50 is 3.5 µM.
Take `Cc1c(O)c(=O)ccn1C1CCC(CC2CCC(n3ccc(=O)c(O)c3C)CC2)CC1` (stereo not shown) [drawing 215]: the IC50 was > 50 µM.

The record behind these values is patent publication US20250268880A1, “3-(Hydroxy)-Pyridin-4(1H)-One Compounds and Methods of Making and Using the Same” (Georgia Tech Research Corporation, priority 2018, published 2025).
